The target of assay [1] is p75 neurotrophin receptor (p75^NTR), endogenous in cerebellar granule neurons (mouse (endogenous in P7 CGNs)) (UniProt Q9Z0W1). Kind of assay: co-IP; as a1, CGNs treated with PMA, alone or with NGF, for 30 min; blot for RIP2.
Assay [2] shares this target. Kind of assay: co-IP; p75NTR immunoprecipitated from lysates of cultured P7 wild-type mouse CGNs, blots for endogenous RhoGDI or RIP2; cells untreated or treated with PMA, MAG or NGF.
Assay [3] deals with mouse p75^NTR wild type, transfected in NIH3T3 cells (mouse) (UniProt Q9Z0W1). Description: co-IP; p75NTR immunoprecipitated from NIH3T3 cells overexpressing p75NTR and RIP2, treated with scrambled or RhoGDI siRNA, with or without PMA; blot for RIP2.
The target in assay [4] is mouse p75^NTR K303A, transfected in NIH3T3 cells (mouse) (UniProt Q9Z0W1). Description: co-IP; competition: p75NTR immunoprecipitated from NIH3T3 cells transfected with p75NTR (WT or K303A), Myc-RIP2 and RhoGDI WT or S34D in increasing doses; blots for RhoGDI, RIP2 and p75NTR.
Assay [5] has as its target mouse p75^NTR wild type, transfected in NIH3T3 cells (mouse) (UniProt Q9Z0W1). The description is as above.
For assay [6], the target named is p75 neurotrophin receptor (p75^NTR), endogenous in cerebellar granule neurons (mouse (endogenous in P7 CGNs)) (UniProt Q9Z0W1). Kind of assay: co-IP; as a1, CGNs treated with the PKC inhibitor Gö6976 (1 µM), alone or with MAG.
In assay [7] the target is GFP-tagged p75^NTR wild type, lentiviral, in p75^NTR knock-out CGNs (mouse) (UniProt Q9Z0W1). Kind of assay: proximity ligation; in situ PLA with antibodies to RhoGDI and p75NTR (ANT-011) in fixed p75NTR knock-out CGNs transduced with lentivirus for p75NTR WT or K303A.
The target of assay [8] is HA-tagged p75^NTR wild type, electroporated into p75^NTR knock-out CGNs (mouse) (UniProt Q9Z0W1). Description: co-IP; HA-tagged p75NTR immunoprecipitated from p75NTR knock-out P7 CGNs electroporated with p75NTR WT or K303A; blot for endogenous RhoGDI; with or without PMA.
Assay [9] deals with p75 neurotrophin receptor (p75^NTR), endogenous in cerebellar granule neurons (mouse (endogenous in P7 CGNs)) (UniProt Q9Z0W1). Kind of assay: co-IP; p75NTR immunoprecipitated from lysates of cultured P7 wild-type mouse CGNs, blots for endogenous RhoGDI or RIP2; cells untreated or treated with PMA, MAG or NGF. This is another data set of the same source.
Assay [10] has the same target. Description: co-IP; p75NTR immunoprecipitated from lysates of P7 wild-type CGNs; control or phospho-Ser34 RhoGDI peptide added to the lysate at 30 μM for 30 min at 4 °C before the antibody; blot for RhoGDI.
For assay [11], the target named is mouse p75^NTR wild type, transfected in NIH3T3 cells (mouse) (UniProt Q9Z0W1). Kind of assay: co-IP; p75NTR (or its JXT-GST fusion) immunoprecipitated from lysates of NIH3T3 cells co-transfected with p75NTR and Flag-RhoGDI constructs, blot for Flag; baseline or after PMA, Gö6976 or NGF.
The target of assay [12] is p75^NTR K303A and p75^NTR K346A/E349A (KEA) expressed together in HEK293 cells (receptor dimer) (mouse) (UniProt Q9Z0W1). Description: co-IP; p75NTR immunoprecipitated from HEK293 cells transfected with Flag-RhoGDI and HA-tagged or untagged p75NTR WT, K303A or K346A/E349A, alone or in combination; blot for Flag.
Assay [13] concerns the target mouse p75^NTR K303D (mouse) (UniProt Q9Z0W1). Kind of assay: co-IP; p75NTR (or its JXT-GST fusion) immunoprecipitated from lysates of NIH3T3 cells co-transfected with p75NTR and Flag-RhoGDI constructs, blot for Flag; baseline or after PMA, Gö6976 or NGF.
In assay [14] the target is mouse p75^NTR K282A/K285A double mutant (mouse) (UniProt Q9Z0W1). The description is as above.
Assay [15] has as its target mouse p75^NTR V246N (cleavage-resistant, γ-secretase mutant variant) (mouse) (UniProt Q9Z0W1). Described as above.
The target in assay [16] is mouse p75^NTR K303A, transfected in NIH3T3 cells (mouse) (UniProt Q9Z0W1). The description is as above.
The target of assay [17] is mouse p75^NTR wild type, transfected in NIH3T3 cells (mouse) (UniProt Q9Z0W1). Kind of assay: co-IP; as a3, the arm of Figure 3E treated with vehicle (no PMA).
Assay [18] deals with p75 neurotrophin receptor (p75^NTR), endogenous in cerebellar granule neurons (mouse (endogenous in P7 CGNs)) (UniProt Q9Z0W1). Kind of assay: co-IP; as a7; the synthetic phospho-Ser34 peptide (30 μM) as competitor against p75NTR in the lysate; only the binder purified.

Chains of the proteins cited; added tags and fusions are not shown. Lines headed by an entry give the natural chain unless they say otherwise; changes in a name come on top. A line that says so, or that is headed by a name, gives the form on record, which may keep a tag or linker. Residues count along the entry.
p75 neurotrophin receptor (p75^NTR), endogenous in cerebellar granule neurons (mouse (endogenous in P7 CGNs)) (Q9Z0W1, residues 32-427): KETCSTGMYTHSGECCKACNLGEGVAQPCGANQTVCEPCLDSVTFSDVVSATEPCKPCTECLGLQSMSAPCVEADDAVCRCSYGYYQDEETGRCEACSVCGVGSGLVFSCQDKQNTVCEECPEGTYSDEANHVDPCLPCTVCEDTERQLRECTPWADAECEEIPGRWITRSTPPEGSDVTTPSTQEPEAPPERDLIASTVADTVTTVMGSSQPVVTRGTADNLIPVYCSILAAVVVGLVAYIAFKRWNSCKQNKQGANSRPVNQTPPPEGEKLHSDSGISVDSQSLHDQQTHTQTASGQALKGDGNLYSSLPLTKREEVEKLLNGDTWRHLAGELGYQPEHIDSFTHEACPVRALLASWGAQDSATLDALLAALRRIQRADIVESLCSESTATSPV
mouse p75^NTR K303A, transfected in NIH3T3 cells (Q9Z0W1, form named): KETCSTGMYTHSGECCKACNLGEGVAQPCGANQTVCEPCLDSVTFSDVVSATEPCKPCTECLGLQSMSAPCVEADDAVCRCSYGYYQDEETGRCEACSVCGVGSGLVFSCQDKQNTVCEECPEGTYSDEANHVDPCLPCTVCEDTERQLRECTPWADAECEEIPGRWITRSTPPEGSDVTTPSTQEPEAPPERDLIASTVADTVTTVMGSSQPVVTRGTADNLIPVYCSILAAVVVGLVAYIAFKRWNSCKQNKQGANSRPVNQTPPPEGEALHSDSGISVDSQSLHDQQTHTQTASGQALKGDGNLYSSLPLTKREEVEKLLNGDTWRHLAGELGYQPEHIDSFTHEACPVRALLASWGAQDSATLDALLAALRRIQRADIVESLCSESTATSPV
mouse p75^NTR K303D (Q9Z0W1, form named): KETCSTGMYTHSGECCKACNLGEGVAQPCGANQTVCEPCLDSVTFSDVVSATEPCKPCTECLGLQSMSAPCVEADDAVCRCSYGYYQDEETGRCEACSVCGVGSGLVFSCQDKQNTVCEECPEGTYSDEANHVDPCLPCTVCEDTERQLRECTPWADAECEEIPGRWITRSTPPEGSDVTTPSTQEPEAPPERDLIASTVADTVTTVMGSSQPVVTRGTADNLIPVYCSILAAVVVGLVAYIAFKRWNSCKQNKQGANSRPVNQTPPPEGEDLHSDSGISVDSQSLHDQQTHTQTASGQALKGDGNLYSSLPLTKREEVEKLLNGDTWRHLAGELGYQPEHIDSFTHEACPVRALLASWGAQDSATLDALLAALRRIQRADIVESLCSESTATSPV
mouse p75^NTR K282A/K285A double mutant (Q9Z0W1, form named): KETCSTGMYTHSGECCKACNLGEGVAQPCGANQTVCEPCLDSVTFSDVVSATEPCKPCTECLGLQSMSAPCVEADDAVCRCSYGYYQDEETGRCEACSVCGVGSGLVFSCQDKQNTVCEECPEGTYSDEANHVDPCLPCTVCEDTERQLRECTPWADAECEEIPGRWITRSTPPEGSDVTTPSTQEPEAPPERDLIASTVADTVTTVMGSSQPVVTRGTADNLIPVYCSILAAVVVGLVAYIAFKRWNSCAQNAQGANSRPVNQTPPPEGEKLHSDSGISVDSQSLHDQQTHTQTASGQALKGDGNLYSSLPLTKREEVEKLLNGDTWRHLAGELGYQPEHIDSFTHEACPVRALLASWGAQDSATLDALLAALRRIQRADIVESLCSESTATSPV
mouse p75^NTR V246N (cleavage-resistant, γ-secretase mutant variant) (Q9Z0W1, form named): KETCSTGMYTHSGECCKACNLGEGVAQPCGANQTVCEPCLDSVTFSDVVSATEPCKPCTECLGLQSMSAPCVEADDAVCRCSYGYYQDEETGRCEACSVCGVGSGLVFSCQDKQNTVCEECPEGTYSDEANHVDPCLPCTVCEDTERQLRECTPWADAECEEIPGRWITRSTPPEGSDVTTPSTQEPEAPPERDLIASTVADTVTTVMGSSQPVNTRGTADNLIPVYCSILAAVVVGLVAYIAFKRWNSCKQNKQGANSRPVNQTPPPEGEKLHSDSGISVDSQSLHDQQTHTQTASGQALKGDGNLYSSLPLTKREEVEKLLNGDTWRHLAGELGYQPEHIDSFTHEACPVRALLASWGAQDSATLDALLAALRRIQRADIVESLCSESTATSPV
UniProt P58801: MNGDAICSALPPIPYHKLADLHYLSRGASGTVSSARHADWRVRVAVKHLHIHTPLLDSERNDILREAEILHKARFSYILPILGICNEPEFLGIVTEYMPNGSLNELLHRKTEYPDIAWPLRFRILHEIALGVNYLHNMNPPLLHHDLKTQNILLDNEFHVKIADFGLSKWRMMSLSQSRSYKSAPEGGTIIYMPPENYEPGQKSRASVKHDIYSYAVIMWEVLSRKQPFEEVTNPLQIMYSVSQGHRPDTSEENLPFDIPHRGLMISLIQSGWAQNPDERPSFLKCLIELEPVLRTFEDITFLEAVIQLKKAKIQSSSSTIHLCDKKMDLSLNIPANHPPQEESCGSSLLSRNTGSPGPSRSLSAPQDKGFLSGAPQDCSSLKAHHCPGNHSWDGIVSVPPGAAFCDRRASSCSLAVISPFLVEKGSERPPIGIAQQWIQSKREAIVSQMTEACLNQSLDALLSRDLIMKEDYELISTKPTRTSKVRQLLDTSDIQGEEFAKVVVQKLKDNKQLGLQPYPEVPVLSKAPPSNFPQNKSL

These are yes or no findings as the source states them, for the method shown. In cells and extracts the contact can be indirect. Some entries that bind do so weakly or less than the wild type. For some of these results: Sequences can lack the tags named with a protein.

Consider “RIP2, endogenous in cerebellar granule neurons (from UniProt P58801 1-539)”, for which the binding result in assay [1] is reported as “no binding (condition: CGNs treated with PMA)”; in assay [2], “binds”.
For “mouse Myc-RIP2 (from UniProt P58801 1-539)”, the binding entry in assay [3], in [4] and in assay [5] was “binds” in each case.

B1: Rho GDP-dissociation inhibitor (RhoGDI), endogenous in cerebellar granule neurons (protein, UniProt Q99PT1 1-204)
chain: MAEQEPTAEQLAQIAAENEEDEHSVNYKPPAQKSIQEIQELDKDDESLRKYKEALLGRVAVSADPNVPNVIVTRLTLVCSTAPGPLELDLTGDLESFKKQSFVLKEGVEYRIKISFRVNREIVSGMKYIQHTYRKGVKIDKTDYMVGSYGPRAEEYEFLTPMEEAPKGMLARGSYNIKSRFTDDDKTDHLSWEWNLTIKKEWKD
With B1, the binding result in [6] is “no binding (condition: CGNs treated with Gö6976 (1 µM))”; in assay [7], “binds”; in assay [8], “binds”; in [9], “binds”; in [10] it was “binds”.

B2: mouse Flag-RhoGDI S34D (protein, UniProt Q99PT1 1-204)
chain: MAEQEPTAEQLAQIAAENEEDEHSVNYKPPAQKDIQEIQELDKDDESLRKYKEALLGRVAVSADPNVPNVIVTRLTLVCSTAPGPLELDLTGDLESFKKQSFVLKEGVEYRIKISFRVNREIVSGMKYIQHTYRKGVKIDKTDYMVGSYGPRAEEYEFLTPMEEAPKGMLARGSYNIKSRFTDDDKTDHLSWEWNLTIKKEWKD
B2: the binding result in assay [5] and in assay [11] was “binds” each time.

B3: mouse Flag-RhoGDI S96A (protein, UniProt Q99PT1 1-204)
chain: MAEQEPTAEQLAQIAAENEEDEHSVNYKPPAQKSIQEIQELDKDDESLRKYKEALLGRVAVSADPNVPNVIVTRLTLVCSTAPGPLELDLTGDLEAFKKQSFVLKEGVEYRIKISFRVNREIVSGMKYIQHTYRKGVKIDKTDYMVGSYGPRAEEYEFLTPMEEAPKGMLARGSYNIKSRFTDDDKTDHLSWEWNLTIKKEWKD
Regarding B3, in [11], the binding entry is “binds”.

B4: Flag-RhoGDI, transfected in HEK293 cells (protein, UniProt Q99PT1 1-204)
chain: MAEQEPTAEQLAQIAAENEEDEHSVNYKPPAQKSIQEIQELDKDDESLRKYKEALLGRVAVSADPNVPNVIVTRLTLVCSTAPGPLELDLTGDLESFKKQSFVLKEGVEYRIKISFRVNREIVSGMKYIQHTYRKGVKIDKTDYMVGSYGPRAEEYEFLTPMEEAPKGMLARGSYNIKSRFTDDDKTDHLSWEWNLTIKKEWKD
Regarding B4, the binding entry in assay [12] was “binds”.

B5: mouse Flag-RhoGDI S34K (protein, UniProt Q99PT1 1-204)
chain: MAEQEPTAEQLAQIAAENEEDEHSVNYKPPAQKKIQEIQELDKDDESLRKYKEALLGRVAVSADPNVPNVIVTRLTLVCSTAPGPLELDLTGDLESFKKQSFVLKEGVEYRIKISFRVNREIVSGMKYIQHTYRKGVKIDKTDYMVGSYGPRAEEYEFLTPMEEAPKGMLARGSYNIKSRFTDDDKTDHLSWEWNLTIKKEWKD
B5: the binding result in assay [13] is reported as “binds”.

B6: mouse Flag-RhoGDI S96D (protein, UniProt Q99PT1 1-204)
chain: MAEQEPTAEQLAQIAAENEEDEHSVNYKPPAQKSIQEIQELDKDDESLRKYKEALLGRVAVSADPNVPNVIVTRLTLVCSTAPGPLELDLTGDLEDFKKQSFVLKEGVEYRIKISFRVNREIVSGMKYIQHTYRKGVKIDKTDYMVGSYGPRAEEYEFLTPMEEAPKGMLARGSYNIKSRFTDDDKTDHLSWEWNLTIKKEWKD
Turning to B6, in [11], the binding result is “binds”.

B7: mouse Flag-RhoGDI S34A (protein, UniProt Q99PT1 1-204)
chain: MAEQEPTAEQLAQIAAENEEDEHSVNYKPPAQKAIQEIQELDKDDESLRKYKEALLGRVAVSADPNVPNVIVTRLTLVCSTAPGPLELDLTGDLESFKKQSFVLKEGVEYRIKISFRVNREIVSGMKYIQHTYRKGVKIDKTDYMVGSYGPRAEEYEFLTPMEEAPKGMLARGSYNIKSRFTDDDKTDHLSWEWNLTIKKEWKD
For the molecule B7, the binding entry in assay [11] is listed as “binds weakly”.

B8: mouse Flag-RhoGDI wild type, transfected in NIH3T3 cells (protein, UniProt Q99PT1 1-204)
chain: MAEQEPTAEQLAQIAAENEEDEHSVNYKPPAQKSIQEIQELDKDDESLRKYKEALLGRVAVSADPNVPNVIVTRLTLVCSTAPGPLELDLTGDLESFKKQSFVLKEGVEYRIKISFRVNREIVSGMKYIQHTYRKGVKIDKTDYMVGSYGPRAEEYEFLTPMEEAPKGMLARGSYNIKSRFTDDDKTDHLSWEWNLTIKKEWKD
On to B8, for which the binding entry in assay [5], in assay [14], in [15] and in assay [11] was “binds” each time.

B9: Flag-tagged RhoGDI lacking the N-terminal domain (RhoGDI-∆59) (domain or fragment, UniProt Q99PT1 60-204)
chain: AVSADPNVPNVIVTRLTLVCSTAPGPLELDLTGDLESFKKQSFVLKEGVEYRIKISFRVNREIVSGMKYIQHTYRKGVKIDKTDYMVGSYGPRAEEYEFLTPMEEAPKGMLARGSYNIKSRFTDDDKTDHLSWEWNLTIKKEWKD
For the molecule B9, the binding entry in assay [14], in [16] and in assay [11] was “binds” throughout.

B10: RhoGDI-59: the 59 N-terminal residues of RhoGDI fused to GST, Flag-tagged (domain or fragment, UniProt Q99PT1 1-59)
chain: MAEQEPTAEQLAQIAAENEEDEHSVNYKPPAQKSIQEIQELDKDDESLRKYKEALLGRV
Regarding B10, the binding result in [17] is given as “no binding (condition: without PMA (vehicle))”; in assay [14] it was “binds”; in [16], “no binding”; in assay [11], “binds”.

B11: RhoGDI-59 S34A (GST fusion, Flag-tagged) (domain or fragment, UniProt Q99PT1 1-59)
chain: MAEQEPTAEQLAQIAAENEEDEHSVNYKPPAQKAIQEIQELDKDDESLRKYKEALLGRV
As to B11, the binding entry in assay [11] was “no binding”.

B12: RhoGDI-59 S34D (GST fusion, Flag-tagged) (domain or fragment, UniProt Q99PT1 1-59)
chain: MAEQEPTAEQLAQIAAENEEDEHSVNYKPPAQKDIQEIQELDKDDESLRKYKEALLGRV
With B12, the binding result in assay [11] is “binds”.
As for CPAQKSIQEI (phosphoserine (pS; Ser34 of RhoGDI)) [phospho-Ser^34 RhoGDI peptide (Cys-PAQKpSIQEI)], the binding result in [18] is “binds”.
